Experimental data as given in PubChem BioAssay AID1460 (National Center for Advancing Translational Sciences (NCATS), 2008).
The campaign covered roughly 270,000 compounds. About 5,800 (2.1%) were called active. This list was built around the results that the source calls inconclusive (neither active nor inactive); the mix of calls is not that of the screen. The call rests on the fitted dose curve; in most records, active means well fitted inhibition curve with a large enough effect; inconclusive means small, poorly fitted or top-dose-only effect; inactive means flat fitted curve, though single readings scatter. Where the call is inconclusive, the potency comes from a doubtful curve fit.

target: Microtubule-associated protein tau (Homo sapiens) (UniProt P10636); assay: qHTS for Inhibitors of Tau Fibril Formation, Thioflavin T Binding; conditions: recombinant tau K18 P301L (four-repeat tau fragment), heparin-induced fibrillization, ThT fluorescence; series mostly up to 57.4 µM; further: nearly all actives have a fitted effect of over 55% in size
Method in brief: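 Aggregation was driven by heparin (20 uM final) acting on recombinant tau […] bearing P301L in 100 mM sodium acetate pH 7; fibrils were detected with Thioflavin T.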
Potency means the concentration at half of the fitted maximal effect; tags describe the fitted curve by direction and shape.

Chain of UniProt P10636 (P10636 whole entry, looked up, the tested form may be a part): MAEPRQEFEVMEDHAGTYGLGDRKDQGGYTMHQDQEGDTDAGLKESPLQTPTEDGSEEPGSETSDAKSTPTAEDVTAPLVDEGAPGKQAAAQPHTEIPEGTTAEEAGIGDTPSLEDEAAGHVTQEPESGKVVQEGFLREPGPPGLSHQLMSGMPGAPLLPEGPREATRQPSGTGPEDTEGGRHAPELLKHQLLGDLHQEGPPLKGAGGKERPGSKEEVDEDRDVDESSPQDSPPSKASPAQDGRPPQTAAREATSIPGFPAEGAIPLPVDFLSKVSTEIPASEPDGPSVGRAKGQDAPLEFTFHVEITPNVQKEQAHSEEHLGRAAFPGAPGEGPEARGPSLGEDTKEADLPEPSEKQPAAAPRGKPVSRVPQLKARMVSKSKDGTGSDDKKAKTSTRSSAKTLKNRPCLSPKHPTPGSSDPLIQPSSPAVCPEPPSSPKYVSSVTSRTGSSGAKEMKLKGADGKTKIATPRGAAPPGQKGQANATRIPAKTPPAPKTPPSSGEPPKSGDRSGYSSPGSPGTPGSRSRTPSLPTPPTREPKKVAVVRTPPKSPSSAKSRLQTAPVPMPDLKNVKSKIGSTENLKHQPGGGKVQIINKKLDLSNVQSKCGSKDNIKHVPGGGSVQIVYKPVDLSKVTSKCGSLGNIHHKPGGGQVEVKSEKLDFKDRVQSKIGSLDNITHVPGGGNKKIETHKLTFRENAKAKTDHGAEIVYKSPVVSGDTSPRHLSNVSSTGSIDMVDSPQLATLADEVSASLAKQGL

SMILES | Potency
Cc1cc(C)c2c(=O)n(CC(=O)NCCCN3CCOCC3)sc2n1 | active: 10 µM
CCCCNC(=O)c1ccccc1C(=O)NCCCC | inactive
COC(=O)c1ccc(C(NC(=O)OCc2ccccc2)/C(=C/[C@@H](C)C(=O)NCc2cc(F)cc(F)c2)c2cccnc2)cc1 (some centres not stated) | inactive
COC(=O)c1ccc(-n2cnc3ccccc32)nc1 | inconclusive: 7.94 µM [inhibitor, partial curve]
CCc1nc(N=Nc2c(O)[nH]c3ccccc23)c2c3c(sc2n1)CCC3 | inconclusive: 20 µM [inhibitor, partial curve]
CCOc1cc(CNCCc2ccc(S(N)(=O)=O)cc2)ccc1OCc1ccc(Cl)cc1 | inconclusive: 39.8 µM [inhibitor, single point]
Cc1ccc(-c2ccc(/C=N/N3C(=O)C4C5C=CC(CC5)C4C3=O)o2)c([N+](=O)[O-])c1 (configuration not stated) | inconclusive: 15.8 µM [inhibitor, partial curve]
CCOC(=O)[C@]1(C(/C=C/c2ccco2)NC(=O)OC)CCCC1=O (some centres not stated) | inconclusive: 3.98 µM [inhibitor, partial curve]
N#Cc1c(Cl)nsc1NN | active: 7.94 µM
CN(C)c1cc(Cl)c2nonc2c1N | active: 25.1 µM
CCOC(=O)c1cn(-c2c(Cl)cccc2Cl)c2cc(Cl)c([N+](=O)[O-])cc2c1=O | inconclusive: 17.8 µM [inhibitor, partial curve]
S=C(Nc1ccc(Nc2ccccc2)cc1)NN1CCOCC1 | inconclusive: 15.8 µM [inhibitor, single point]
CCCC(=O)Nc1cc(C(=O)NCc2ccc(OC)cc2)ccc1S(=O)(=O)c1ccc(Cl)cc1 | inconclusive: 0.0251 µM [activator, full curve, poor fit]
CCOc1ccc(NC(=S)NCCN2CCN(Cc3ccccc3)CC2)cc1 | inactive
CC1(C)CO[C@@H](CC(=O)O)CN1 | inactive
O=CN1CCN(C(=O)c2ccc(-c3nc4ccccc4s3)s2)CC1 | inconclusive: 15.8 µM [inhibitor, partial curve]
CCc1c2c(nc3c(C(C)C)cccc13)-c1cccc(=O)n1C2 | inconclusive: 31.6 µM [inhibitor, single point]
CCc1ccc(CNC(=O)C2CCCN(c3nn4cc(-c5ccc(F)cc5)nc4s3)C2)cc1 (configuration not stated) | inconclusive: 1.78 µM [inhibitor, full curve]
CCOc1ccc(-c2nc3c(C#N)c[nH]n3c2NC2CCCCC2)cc1 | inactive
Cc1ccc(-n2c3nc(=O)[nH]c(=O)c-3cc3cc([N+](=O)[O-])ccc32)cc1C | inconclusive: 31.6 µM [inhibitor, partial curve]
Cc1n[nH]c(=O)nc1N/N=C/c1ccc(O)c([N+](=O)[O-])c1 | inconclusive: 12.6 µM [inhibitor, partial curve]
O=C(c1ccccc1)c1ccc2c(c1)OCCOCCOCCOCCO2 | inconclusive: 3.16 µM [inhibitor, partial curve]
CSc1nsc(/C=C/Nc2ccc(C)c(C)c2)c1C#N | inconclusive: 6.31 µM [inhibitor, partial curve]
Cc1nc([N+](=O)[O-])c(Br)n1CC(=O)c1cccc([N+](=O)[O-])c1 | inconclusive: 3.55 µM [inhibitor, single point]

SMILES | Potency
CCC1CCc2c(c3ccccc3[nH]c2=O)O1 (configuration not stated) | inactive
COCCOc1ccc(C(F)(F)F)cc1Nc1nc2ccccc2o1 | inconclusive: 28.2 µM [inhibitor, partial curve]
COc1ccc(N/C=C2\CCOC2=O)cc1 | inactive
COc1ccc(Nc2nc3c([nH]2)c(=O)[nH]c(=O)n3C)cc1 | inconclusive: 3.55 µM [inhibitor, partial curve, poor fit]
CCOC(=O)c1c(NC(C)=O)sc2c(O)c(Br)ccc12 | inconclusive: 4.47 µM [inhibitor, partial curve]
CCN(CC)CCCNC(=O)c1nn(-c2ccc(OC)c(Cl)c2)c(=O)c2c1c1ccccc1n2C | inactive
O=C(CC1Oc2ccc(Cl)cc2NC1=O)NC1CCCCCC1 (configuration not stated) | inactive
COc1ccc(NC(=O)CSc2nnc3scc(-c4ccc(Cl)cc4)n23)cc1 | inconclusive: 39.8 µM [inhibitor, single point]
Cn1nnnc1SCCNCc1ccc(OCc2ccccc2)cc1 | inconclusive: 11.2 µM [inhibitor, partial curve]
COc1ccc(N2CCN(CC(=O)Nc3ccc(SC(F)F)cc3)CC2)cc1 | inconclusive: 14.1 µM [inhibitor, partial curve]
COC(=O)c1sccc1S(=O)(=O)N(CC(=O)NCc1ccccc1)c1ccc(C)c(C)c1 | inactive
C=C1CCC[C@]2(C)C[C@H]3OC(=O)[C@H](CNCCc4ccccc4OC)C3CC12 (some centres not stated) | inactive
Cc1cccc(NC(=O)CN2c3ccccc3S(=O)(=O)c3ccccc32)c1C | inactive
CCc1nn(CC(=O)NCc2ccc(OC)cc2OC)c(=O)c2cc3c(OC)cccc3n12 | inactive
CCOC(=O)CCSc1cc(C)c2ccccc2n1 | inconclusive: 20 µM [inhibitor, single point]
CCNc1nc(C(=O)O)nc(N2CCOCC2)n1 | inactive
CC(C)NC(=O)c1ccc(C2SCC(=O)N2Cc2ccccc2)cc1 (configuration not stated) | inactive
O=C(CCCc1ccccc1)N1CCc2ccccc21 | inconclusive: 7.08 µM [inhibitor, partial curve]
C/C(=N\NC(=O)c1ccc(O)cc1)c1ccc2c(c1)Nc1ccccc1S2 | active: 4.47 µM
COc1ccc(-c2noc(CSc3nnc(-c4ccccc4)n3-c3ccc(F)cc3)n2)c(OC)c1 | inconclusive: 39.8 µM [inhibitor, single point]
Cc1ccc(N=Nc2c(C)[nH]n(-c3ccccc3)c2=O)cc1 | inactive
O=C(Nc1ccc2c(c1)nc1n2CCN(C2CCCCC2)C1)NC1CCCCC1 | inconclusive: 31.6 µM [inhibitor, partial curve]
CCOc1cc(C2NC(=O)N(C)C(C)=C2C(=O)OC)cc(Br)c1O (configuration not stated) | inconclusive: 28.2 µM [inhibitor, single point]
COc1ccc(-c2cc(OC(=O)c3ccc(F)cc3)c3c(C)oc(C)c3c(=O)c2)cc1OC | inactive

SMILES | Potency
C=CCOc1ccc(C2NC(=S)NC(c3ccccc3)=C2C(C)=O)cc1OC (configuration not stated) | inactive
CC(C)CCn1c(CN(C)Cc2ccccc2)nc2c1c(=O)n(C)c(=O)n2C | inconclusive: 22.4 µM [inhibitor, single point]
Cc1ccc([N+](=O)[O-])cc1-c1ccc(/C=C(\C#N)c2[nH]nc(N)c2C#N)o1 | active: 8.91 µM
Cc1cccn2c(=O)c(/C=C(\C#N)c3nc4ccccc4s3)c(Oc3ccc(Br)cc3)nc12 | inconclusive: 2.82 µM [inhibitor, full curve]
Cc1ccccc1NC(=O)Nc1ccc2nc(N3CCN(C)CC3)cc(C)c2c1 | inconclusive: 11.2 µM [inhibitor, partial curve]
Cc1nc2nc(NC(=O)c3ccc(F)cc3)[nH]n2c(=O)c1Cc1ccccc1 | inconclusive: 12.6 µM [inhibitor, single point]
Cc1[nH]n(-c2ccc([N+](=O)[O-])cc2)c(=O)c1C=NCCc1c(C)[nH]c2ccccc12 | inconclusive: 14.1 µM [inhibitor, partial curve]
Cc1ccc(C(=O)CSC2=NC(N)=C(C#N)C3(CCCCC3)C2C(N)=O)cc1 (configuration not stated) | active: 25.1 µM
COc1cc(C2c3c(oc4ccccc4c3=O)C(=O)N2c2nc(C)c(C)s2)ccc1O (configuration not stated) | inconclusive: 3.16 µM [inhibitor, partial curve]
COc1cccc(/C=N/c2oc(-c3ccccc3)cc2C#N)c1O | active: 14.1 µM
C/C(CCc1oc2ccc(Cl)cc2c1-c1ccc(C)o1)=N\O | inconclusive: 17.8 µM [inhibitor, partial curve]
Cc1[nH]c2ccccc2c1C(O)CN1CCN(c2cccc(C(F)(F)F)c2)CC1 (configuration not stated) | inconclusive: 20 µM [inhibitor, partial curve]
O=C(N/N=C/c1ccc2c(c1)OCO2)c1cccs1 | inconclusive: 22.4 µM [inhibitor, single point]
C/C(=N\Nc1cccc2cccnc12)c1ccccn1 | inconclusive: 7.08 µM [inhibitor, partial curve]
O=C(N/N=C/c1ccncc1)c1cccc(NC(=O)c2ccc(Cl)cc2)c1 | inconclusive: 1.78 µM [inhibitor, full curve, poor fit]
Cc1ccc(C)c(N2CCN(c3nccn4nc(-c5ccc(Br)cc5)cc34)CC2)c1 | inactive
CCCNC(=O)Nc1cc(OCC)c(N2CCOCC2)cc1OCC | inactive
C=CCC(Nc1ccc(OC)cc1)C(=O)OCC (configuration not stated) | inactive
COc1cccc2c1[C@@H]1CN(CCCCn3c(=O)[nH]c4c(sc5ncc(-c6ccccc6)nc54)c3=O)C[C@@H]1CO2 | inconclusive: 17.8 µM [inhibitor, partial curve]
O=C(Nc1nnc(-c2ccc3c(c2)CCCC3)o1)c1ccc(Cl)cc1Cl | inconclusive: 15.8 µM [inhibitor, single point]
COc1ccccc1C(=O)NCC(=O)N/N=C/c1cccc(Cl)c1 | inconclusive: 12.6 µM [inhibitor, partial curve]
CCOC(=O)/C(=N/Nc1ccc(OC)cc1)N1CCCc2ccccc21 | inactive
O=[N+]([O-])c1ccc2[nH]c(O)c(N=NC(=S)Nc3cccnc3)c2c1 | active: 2.24 µM
COc1cc(Nc2nc(SCc3cccc(Cl)c3)nc3ccccc23)cc(OC)c1 | inconclusive: 12.6 µM [activator, partial curve, poor fit]
